According to patent publication US12145987B2, “Method for depleting cytotoxic T cells using an anti-LAG-3 antibody composition” (Daiichi Sankyo Company, Limited, priority 2017, dated 2024):

Assays:
T cells (total number) = assay: Total T cell number after CD3/CD28 stimulation of human PBMCs for 4 days, flow cytometry; assay type: cell-based; details: hLA212_H4/L2 10 μg/mL, tacrolimus 10 nM, dexamethasone 1 μM, PBMCs of two donors
Procedure: PBMCs were separated from human peripheral blood by Ficoll centrifugation and added to a 96-well U-bottom microplate in an amount of 4×10^5 cells/well. Human IL-2 (PeproTech, Inc., final concentration: 100 ng/mL) and Dynabeads Human T-Activator CD3/CD28 (Life Technologies Corp., 4×105 beads/well) were added thereto, and T cells were activated by culture for 4 days. The obtained cells were recovered, suspended in a FACS buffer (PBS, 0.1% BSA, and 0.1% sodium azide), and then reacted with Human BD Fc Block (Becton, Dickinson and Company) at room temperature for 10 minutes. Subsequently, the cell surface was stained by reaction at 4° C. for 30 minutes with fluorescently labeled antibodies diluted with a FACS buffer containing a LIVE/DEAD Fixable Dead Cell Stain Kit-near-IR fluorescent reactive dye (manufactured by Invitrogen Corp.), followed by washing with a FACS buffer. […] The data was analyzed using FlowJo (manufactured by Tree Star Inc). After removal of the LIVE/DEAD Fixable Dead Cell Stain Kit-near-IR fluorescent reactive dye-positive dead cells by gating, only the living cells were analyzed by further gating CD3 positive and CD8 positive CD8 T cells. […]

[1] = Single dose administration, toxicity observation; assay type: in vivo
Procedure: Further, the hLA212 antibody_H4/L2 was administered to the human LAG-3/human FcγRIIIA double transgenic mice of Example 10 in a single dose, as a result of which, weight loss and other notable toxic events were not observed.

[2] = tested on: T cell suppression function of LAG-3; assay: Influence on T cell suppression function of LAG-3: IL-2 production of SEB-stimulated human PBMCs; assay type: cell-based; details: SEB 1 ng/mL, 4 days, antibody 10 μg/mL

| Molecule | total number of T cells after culture, compared with the control (T cells (total number)) | weight loss and other notable toxic events [1] | influence on IL-2 production in culture supernatant [2] |
| --- | --- | --- | --- |
| hLA212_H4/L2: defucosylated humanized antibody; heavy chain positions 20 to 470 of SEQ ID No: 30, light chain positions 21 to 234 of SEQ ID No: 34 (antibody) heavy: EVQLVESGGGLVQPGGSLRLSCAASGFTYRSYVMAWVRQAPGKGLEWVASISTGGGNTYYRDSVKGRFTISRDNAKNTLYLQMDSLRAEDTAVYYCAEDMSNSGYGLFDYWGQGTLVTVSSASTKGPSVFPLAPSSKSTSGGTAALGCLVKDYFPEPVTVSWNSGALTSGVHTFPAVLQSSGLYSLSSVVTVPSSSLGTQTYICNVNHKPSNTKVDKRV[left out - human IgG1 Fc] light: DIQMTQSPSSLSASVGDRVTITCKAGQNVDNNIAWYQQKPGQSPKLLIYYASNRNTGVPSRFSGSGYGTDFTLTISSLQPEDFATYYCQRISNSPYTFGQGTKVEIKRTVAAPSVFIFPPSDEQLKSGTASVVCLLNNFYPREAKVQWKVDNALQSGNSQESVTEQDSKDSTYSLSSTLTLSKADYEKHKVYACEVTHQGLSSPVTKSFNRGEC | slightly reduced | not observed |  |
| hLA212_H3/L2: humanized antibody; heavy chain positions 20 to 470 of SEQ ID No: 30, light chain positions 21 to 234 of SEQ ID No: 34 (antibody) heavy: EVQLVESGGGLVQPGGSLRLSCAASGFTYRSYVMAWVRQAPGKGLEWVASISTGGGNTYYRDSVKGRFTISRDNAKNTLYLQMDSLRAEDTAVYYCAEDMSNSGYGLFDYWGQGTLVTVSSASTKGPSVFPLAPSSKSTSGGTAALGCLVKDYFPEPVTVSWNSGALTSGVHTFPAVLQSSGLYSLSSVVTVPSSSLGTQTYICNVNHKPSNTKVDKRV[left out - human IgG1 Fc] light: DIQMTQSPSSLSASVGDRVTITCKAGQNVDNNIAWYQQKPGQSPKLLIYYASNRNTGVPSRFSGSGYGTDFTLTISSLQPEDFATYYCQRISNSPYTFGQGTKVEIKRTVAAPSVFIFPPSDEQLKSGTASVVCLLNNFYPREAKVQWKVDNALQSGNSQESVTEQDSKDSTYSLSSTLTLSKADYEKHKVYACEVTHQGLSSPVTKSFNRGEC |  |  | almost no influence on IL-2 production |
